# The list shows a part of the results.
# Biological target: T1, OsWOX13 (Oryza sativa, UniProt Q5QMM3 1-267)
# T1 sequence: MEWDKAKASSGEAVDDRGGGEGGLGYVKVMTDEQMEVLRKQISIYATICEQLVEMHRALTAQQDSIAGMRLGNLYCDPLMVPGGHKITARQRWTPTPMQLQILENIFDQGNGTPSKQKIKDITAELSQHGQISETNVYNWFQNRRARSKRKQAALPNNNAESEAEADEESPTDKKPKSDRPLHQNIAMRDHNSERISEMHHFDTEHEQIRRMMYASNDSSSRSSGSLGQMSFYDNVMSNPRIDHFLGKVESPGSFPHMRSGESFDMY
# Test: protein-binding microarray (RPBM); PBS, 2% BSA, 51.3 ng/ul salmon testes DNA, 50 uM zinc acetate, 200 nM TF, 25 C, 1 h; high values mean tight binding
# Details: protein: recombinant; tags: N-terminal polyhistidine and DsRed monomer fusion (pET32a); label: CyDye5-dUTP incorporated in the synthesized complementary strand; 3' TTTTT single-stranded linker to array surface; dsDNA, one strand shown
# Method in brief: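 The binding signal is fluorescence intensity per array feature (arbitrary units). Readings came from an Axon 4000B scanner after a washed, 2% BSA-blocked, double-stranded custom Agilent array had been incubated for 1 h at 25 °C with 200 nM protein and 50 µM zinc acetate. The protein was a Ni–NTA-purified transcription factor fused N-terminally to polyhistidine and DsRed, expressed in E. coli BL21-CodonPlus.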
row,Sequence,binding signal
1,GAGCAAAACAATAATTAAATATATTTTGATAATAAATTTGCGGAGTCACCTAGTGCAG,3560 fluorescence intensity (a.u.)
2,CTTAATGAAATAAAGCATGGGGCTAAGCCTGATGTTGTTGCGGAGTCACCTAGTGCAG,3430 fluorescence intensity (a.u.)
3,AATAATTGACTGGTAGTGCATGTACTCCTCTTCCTATACTCGGAGTCACCTAGTGCAG,48300 fluorescence intensity (a.u.)
4,GTCGAATTTAATTGGTCTTCGAGTTTCGCCGGTATTTTCTCGGAGTCACCTAGTGCAG,18000 fluorescence intensity (a.u.)
5,GGCTAATCATGGCCTAATTAGGCTCAAAAGATTCGTCTCGCGGAGTCACCTAGTGCAG,33200 fluorescence intensity (a.u.)
6,TGATACAATCATCTCTATGATTGCCTCTAGGGCATATCACCGGAGTCACCTAGTGCAG,40400 fluorescence intensity (a.u.)
7,TTCAATGACAAAATCAATTAATTATCACTAGGATTTTGAACGGAGTCACCTAGTGCAG,42600 fluorescence intensity (a.u.)
8,GAATTAATTAAAATTCGGAAAGAAATTGGCAAACACTAAACGGAGTCACCTAGTGCAG,15600 fluorescence intensity (a.u.)
9,GAGTAAACTGAAAGAAACAGATAATTTATTAAAGTAGCTTCGGAGTCACCTAGTGCAG,21900 fluorescence intensity (a.u.)
10,CATGCCTTGATTATTGTTTATCCCTTATTCCTTCGTAACCCGGAGTCACCTAGTGCAG,16800 fluorescence intensity (a.u.)
11,TATGATTGATAGATTCTTAGTATTTGGGTGGCTTTTCGTACGGAGTCACCTAGTGCAG,50400 fluorescence intensity (a.u.)
12,GAATAATCAATTGCCGAATACGTTCTGGACATGGATATTGCGGAGTCACCTAGTGCAG,6880 fluorescence intensity (a.u.)
13,CGCCAAATTGCAATGGAGGCTAATTCCCTTCCAGTACTACCGGAGTCACCTAGTGCAG,4440 fluorescence intensity (a.u.)
14,CACACGTTGATTAATGCGAGGAATTTCTTTTGTTTACAACCGGAGTCACCTAGTGCAG,17300 fluorescence intensity (a.u.)
15,ATCCATAATTAGCCATAAGTGCTACAGTAACCCACATATGCGGAGTCACCTAGTGCAG,13300 fluorescence intensity (a.u.)
16,CTGATTACTGTGCGCGAGACTACGTTTCAGTTGTGCTTGTCGGAGTCACCTAGTGCAG,8560 fluorescence intensity (a.u.)
17,GTATGTTATTATATCAATTAGATTTATGCTAGCACTGTCGCGGAGTCACCTAGTGCAG,15200 fluorescence intensity (a.u.)
18,CTCTAAAATGGATGATTTGTGCACAGTGAATAGGTACTGGCGGAGTCACCTAGTGCAG,13600 fluorescence intensity (a.u.)
19,TTAATTACTTTGCAAGACATTTCTTTATCTGAATACAGGTCGGAGTCACCTAGTGCAG,3910 fluorescence intensity (a.u.)
20,GCATAATGCATTAATTTATATATATGAATAGTAGTCGCTCCGGAGTCACCTAGTGCAG,18300 fluorescence intensity (a.u.)
21,CCACCACCACGTAATTAACGCTGCCTCGCTGTTAATGTTCCGGAGTCACCTAGTGCAG,3500 fluorescence intensity (a.u.)
22,ACAACAACAGCTTTGATCAATCAATCCATCAACTCAGGTTCGGAGTCACCTAGTGCAG,11400 fluorescence intensity (a.u.)
23,TAAGCTAATTTGACCGCTGAAAGTGATGGAAAGCAAGCAACGGAGTCACCTAGTGCAG,4480 fluorescence intensity (a.u.)
24,TTTGGATTGAGGGACGATTTTGTAATTCGATGACAAGTTGCGGAGTCACCTAGTGCAG,10400 fluorescence intensity (a.u.)
25,GACCAAGAAATAATTATTATCATCTTGTAGTTTGGATCATCGGAGTCACCTAGTGCAG,4500 fluorescence intensity (a.u.)
26,CTCATTCAATTAGCGCCGAAGTAATAGTCAGAATTTCCCACGGAGTCACCTAGTGCAG,16000 fluorescence intensity (a.u.)
27,CCTACAGTTGAGTGATTAACTGTACGATTATAGTTTTGTTCGGAGTCACCTAGTGCAG,5040 fluorescence intensity (a.u.)

row,Sequence,binding signal
1,TATCACTACTATAGGATTGATTTTCCTGAACGTCACCCCACGGAGTCACCTAGTGCAG,4510 fluorescence intensity (a.u.)
2,ACTCAACCAGATTGATAATAGTCAACTCGTCACATTAGTTCGGAGTCACCTAGTGCAG,15600 fluorescence intensity (a.u.)
3,TGGAGTAATTAGAAATGCATATAAATTGAACCGACAAATACGGAGTCACCTAGTGCAG,15100 fluorescence intensity (a.u.)
4,ATTAAGCCTAATTAATTCGTCATTAACAAATATTTATTACCGGAGTCACCTAGTGCAG,12400 fluorescence intensity (a.u.)
5,TTGTATGGCTTGATTGCAACCAAGAAACTCTTCTTAGCTTCGGAGTCACCTAGTGCAG,9080 fluorescence intensity (a.u.)
6,TTTGACCTTTGTTCTGATTGCTACAACGAGGGAAAGTTTACGGAGTCACCTAGTGCAG,4690 fluorescence intensity (a.u.)
7,TTCTTCTAGAGGAGGAGGAGGCGGCGGGGCGGCGGGCGAGCGGAGTCACCTAGTGCAG,4480 fluorescence intensity (a.u.)
8,CGAGCAATCACCTCCACTAATCACCACCACCCCTATCTTGCGGAGTCACCTAGTGCAG,15200 fluorescence intensity (a.u.)
9,TTCATAAATTATCTTTTGTTTGCAAATATGCCGTTTCGCTCGGAGTCACCTAGTGCAG,20600 fluorescence intensity (a.u.)
10,TGAAATGTGAACAATCAAAATAAACATGATCTCATTGTCCCGGAGTCACCTAGTGCAG,10400 fluorescence intensity (a.u.)
11,TTCTGATTAAGGGGTACAAATTAGATTCGGACTACTTTAACGGAGTCACCTAGTGCAG,13500 fluorescence intensity (a.u.)
12,ACATTTTCCTTTTCCTTTTCCTTCCTTTTCTTTTCCTTTTCGGAGTCACCTAGTGCAG,3150 fluorescence intensity (a.u.)
13,TACAACTACTGCTGATTGCTTCAGACTGATCCAAGAAAGGCGGAGTCACCTAGTGCAG,12000 fluorescence intensity (a.u.)
14,CATGATTTACCTAAATCTCGGTTGGAATAATTTCACCGGACGGAGTCACCTAGTGCAG,33900 fluorescence intensity (a.u.)
15,AGGATAATTGTATAAGTATTTGTCAACTTTGTAATTCTCTCGGAGTCACCTAGTGCAG,12100 fluorescence intensity (a.u.)
16,TATTGATTAAACATAATGGTCTCACAATATTTTAGTTACCCGGAGTCACCTAGTGCAG,27300 fluorescence intensity (a.u.)
17,GCCATAAATTTGATCATGTTTAAGATGGTTTATTAGTTTACGGAGTCACCTAGTGCAG,11000 fluorescence intensity (a.u.)
18,CCTTAATTAATTAATTAATTACGTGCTATTTATTTCTTGGCGGAGTCACCTAGTGCAG,55300 fluorescence intensity (a.u.)
19,TTTCTTAATTGTATTTCTATATGGACTTGATACCCTTCTTCGGAGTCACCTAGTGCAG,18900 fluorescence intensity (a.u.)
20,TTCAGTGCCAATCAGGTAATCAGTGTGAGAGTCTTTTCAACGGAGTCACCTAGTGCAG,11500 fluorescence intensity (a.u.)
21,ACAAGTTTAATTTCTGCATAATTACAGTTCATCTGAGGTTCGGAGTCACCTAGTGCAG,18400 fluorescence intensity (a.u.)
22,ATATATGATTTGGACTTGCTCTAACTATTTTGTTTGAACACGGAGTCACCTAGTGCAG,14500 fluorescence intensity (a.u.)
23,CGAAGATGATAATATAAATTTGGTACCTCTAGATATTTGGCGGAGTCACCTAGTGCAG,6520 fluorescence intensity (a.u.)
24,TGCTTTAAATTACATGGTTACTTCACCTTGAGAGTTGAGACGGAGTCACCTAGTGCAG,4920 fluorescence intensity (a.u.)
25,GATGATGGACGGATAAGATTGTAGCTAATGCCACCCTCTGCGGAGTCACCTAGTGCAG,31600 fluorescence intensity (a.u.)
26,TCATTGAAAGATTTCACAAATTATGGCACCACGTGGACCACGGAGTCACCTAGTGCAG,4490 fluorescence intensity (a.u.)
27,TGTTTCTTTAATTGCTGCGTTTAATCACTCTCCTCCTCACCGGAGTCACCTAGTGCAG,8780 fluorescence intensity (a.u.)

# Reference: article PMC7819943, “Rice protein-binding microarrays: a tool to detect cis-acting elements near promoter regions in rice”
